In patent US20060160798A1, “Viral polymerase inhibitors” (Boehringer Ingelheim (Canada) Ltd., priority 2001, published 2006):

Tested on: Huh7 cells that stably maintain a subgenomic HCV replicon (S22.3 cell-line)
Assay: Cell based HCV RNA replication assay (S22.3 replicon cells, real-time RT-PCR)
Conditions: Hepatitis C virus
[1] = Huh-7, 72 h, S22.3 cells, 72 hours incubation, HCV RNA by RT-PCR

| Structure (SMILES) | EC50 (Huh-7, Table 6) | EC50 [1] | further results |
| --- | --- | --- | --- |
| CC(C)C(=O)Nc1nc(-c2c(C3CCCC3)c3ccc(C(=O)NC4(C(=O)Nc5ccc(/C=C/C(=O)O)cc5)CCCC4)cc3n2C)cs1 [Entry 6094] | < 500 nM |  |  |
| Cn1c(C(=O)O)cc2cc(NC(=O)C3(NC(=O)c4ccc5c(C6CCCC6)c(-c6ccsc6)n(C)c5c4)CCC3)ccc21 [Entry 7054] |  |  | EC50 (Huh-7, Table 7): < 500 nM |
| Cn1c(-c2ccccc2)c(C2CCCCC2)c2ccc(C(=O)NC(C)(C)C(=O)Nc3ccc(/C=C/C(=O)O)cc3)cc21 [Entry 2062] |  | < 500 nM |  |
| Cn1c(-c2ccncc2)c(C2CCCC2)c2ccc(C(=O)NC3(C(=O)Nc4ccc(/C=C/C(=O)O)cc4)CCC3)cc21 [Entry 6039] | < 500 nM |  |  |
| CCN1CCC(NC(=O)c2ccc3c(C4CCCCC4)c(-c4ccccn4)n(C)c3c2)(C(=O)Nc2ccc3sc(C(=O)O)c(C)c3c2)CC1 [Entry 2099] |  | < 500 nM |  |
| Cn1c(-c2csc(NCC3CCCO3)n2)c(C2CCCC2)c2ccc(C(=O)NC(C)(C)C(=O)Nc3ccc(/C=C/C(=O)O)cc3)cc21 (stereo not shown) [Entry 6021] | < 500 nM |  |  |
| Cn1c(-c2csc(NCCN3CCCCC3)n2)c(C2CCCC2)c2ccc(C(=O)NC3(C(=O)Nc4ccc(/C=C/C(=O)O)cc4)CCCC3)cc21 [Entry 6093] | < 500 nM |  |  |
| O=C(O)/C=C/c1ccc(NC(=O)C2(NC(=O)c3ccc4c(C5CCCCC5)c(-c5ccoc5)n(Cc5ccncc5)c4c3)CCCC2)cc1 [Entry 2043] |  | < 500 nM |  |
| O=C(O)/C=C/c1ccc(NC(=O)C2(NC(=O)c3ccc4c(C5CCCCC5)c(-c5ccccn5)[nH]c4c3)CCCC2)cc1 [Entry 2033] |  | < 500 nM |  |
| CC(C)(NC(=O)c1ccc2c(C3CCCC3)c(-c3ccccn3)sc2c1)C(=O)Nc1ccc(/C=C/C(=O)O)cc1 [Entry 8002] |  | 500 to 5000 nM |  |
| Cn1c(-c2cnccn2)c(C2CCCC2)c2ccc(C(=O)NC3(C(=O)Nc4ccc(-c5ccc(C(=O)O)o5)cc4)CCCC3)cc21 [Entry 7037] |  |  | EC50 (Huh-7, Table 7): < 500 nM |
| O=C(O)/C=C/c1ccc(NC(=O)C2(NC(=O)c3ccc4c(C5CCCCC5)c(-c5ccoc5)[nH]c4c3)CCSCC2)cc1 [Entry 2025] |  | < 500 nM |  |
| C=Cc1c(C2CCCC2)c2ccc(C(=O)NC(C)(C)C(=O)Nc3ccc(/C=C/C(=O)O)cc3)cc2n1C [Entry 6046] | < 500 nM |  |  |
| Cn1c(-c2cnccn2)c(C2CCCC2)c2ccc(C(=O)NC3(C(=O)Nc4ccc(/C=C/C(=O)O)cc4)CCC3)cc21 [Entry 6038] | < 500 nM |  |  |
| CC(=O)N1CCCC(NC(=O)c2ccc3c(C4CCCCC4)c(-c4ccccn4)n(C)c3c2)(C(=O)Nc2ccc(/C=C/C(=O)O)cc2)C1 (stereo not shown) [Entry 2105] |  | < 500 nM |  |
| CC(C)N1CCC(NC(=O)c2ccc3c(C4CCCCC4)c(-c4ccoc4)[nH]c3c2)(C(=O)Nc2ccc(/C=C/C(=O)O)cc2)CC1 [Entry 2086] |  | < 500 nM |  |

| Structure (SMILES) | EC50 (Huh-7, Table 6) | EC50 [1] | further results |
| --- | --- | --- | --- |
| Cn1c(-c2csc(-c3cccnc3)n2)c(C2CCCC2)c2ccc(C(=O)NC(C)(C)C(=O)Nc3ccc(/C=C/C(=O)O)cc3)cc21 [Entry 6003] | < 500 nM |  |  |
| CCc1ccnc(-c2c(C3CCCC3)c3ccc(C(=O)NC4(C(=O)Nc5ccc6c(c5)cc(C(=O)O)n6C)CCC4)cc3n2C)c1 [Entry 7045] |  |  | EC50 (Huh-7, Table 7): 500 to 5000 nM |
| CC(=O)Nc1nc(-c2c(C3CCCC3)c3ccc(C(=O)NC4(C(=O)Nc5ccc(/C=C/C(=O)O)cc5)CCC4)cc3n2C)cs1 [Entry 6071] | < 500 nM |  |  |
| Cn1c(-c2ccccn2)c(C2CCCC2)c2ccc(C(=O)N[C@@]3(C(=O)Nc4ccc(-c5cnc(N)nc5)cc4)CCNC3)cc21 [Entry 7059] |  |  | EC50 (Huh-7, Table 7): 500 to 5000 nM |
| Cn1c(-c2ccccn2)c(C2CCCCC2)c2ccc(C(=O)NC(C)(C)C(=O)Nc3ccc(-c4ccc(C(=O)O)o4)cc3)cc21 [Entry 2070] |  | < 500 nM |  |
| Cn1c(-c2cccnc2)c(C2CCCCC2)c2ccc(C(=O)NC(C)(C)C(=O)Nc3ccc(/C=C/C(=O)O)cc3)cc21 [Entry 2068] |  | < 500 nM |  |
| CCN1CCC(NC(=O)c2ccc3c(C4CCCCC4)c(-c4ccoc4)[nH]c3c2)(C(=O)Nc2ccc(/C=C/C(=O)O)cc2)CC1 [Entry 2088] |  | < 500 nM |  |
| Cn1c(-c2nccs2)c(C2CCCC2)c2ccc(C(=O)NC3(C(=O)Nc4ccc(-c5ccc(C(=O)O)o5)cc4)CCCC3)cc21 [Entry 7048] |  |  | EC50 (Huh-7, Table 7): < 500 nM |
| Cc1cccc(-c2c(C3CCCC3)c3ccc(C(=O)N[C@@]4(C(=O)Nc5ccc(/C=C/C(=O)O)cc5)CCN(C)C4)cc3n2C)n1 [Entry 6116] | < 500 nM |  |  |
| CC(C)(NC(=O)c1ccc2c(C3CCCCC3)c(-c3ccoc3)[nH]c2c1)C(=O)Nc1ccc(-c2csc(C(=O)O)n2)cc1 [Entry 2061] |  | 500 to 5000 nM |  |
| NC(=O)/C=C/c1ccc(NC(=O)C2(NC(=O)c3ccc4c(C5CCCCC5)c(-c5ccoc5)[nH]c4c3)CCCC2)cc1 [Entry 2060] |  | < 500 nM |  |
| CN1CCC(NC(=O)c2ccc3c(C4CCCC4)c(-c4ccc(Cl)cn4)n(C)c3c2)(C(=O)Nc2ccc(/C=C/C(=O)O)cc2)CC1 [Entry 6050] | < 500 nM |  |  |
| Cc1ccc(-c2c(C3CCCC3)c3ccc(C(=O)NC4(C(=O)Nc5ccc(-c6ccc(C(=O)O)o6)cc5)CCCC4)cc3n2C)cn1 [Entry 7033] |  |  | EC50 (Huh-7, Table 7): < 500 nM |
| Cc1nc(-c2ccc(C(=O)O)s2)ccc1NC(=O)C1(NC(=O)c2ccc3c(C4CCCC4)c(-c4ccccn4)n(C)c3c2)CCC1 [Entry 7066] |  |  | EC50 (Huh-7, Table 7): 500 to 5000 nM |
| Cn1c(-c2ccoc2)c(C2CCCCC2)c2ccc(C(=O)NC3(C(=O)Nc4ccc(/C=C/C(=O)O)cc4)CCCC3)cc21 [Entry 2006] |  | < 500 nM |  |
